The list shows a part of the results.
Each sequence was assayed on PF3D7_0420300 AP2 domain 1 (GST-tagged) (assay: gcPBM binding intensity (ln(normalized median fluorescence intensity)); higher = stronger DNA binding).
How it was run: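 Using an Agilent 4 × 180k array, primer-extended double-stranded 36-bp intergenic genomic probes and negative controls were exposed for 1 h to GST-fused P. falciparum DNA-binding domains expressed in E. coli. Binding was carried out in 1× PBS with 1% milk, 0.2 mg/ml BSA, 0.5% salmon testes DNA and 0.03% Triton X-100, and protein was detected with Alexa488 anti-GST antibody and a 488 nm scan. Binding intensity is the highest Masliner-normalised natural-log median intensity across replicate spots of either probe orientation.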

Sequence	gcPBM binding intensity (ln)
TCTATTAAAACAAATTGTACTTATTGATAAAGAATA [XGTACX_site3645]	8.85
ATTTTTATTTTATATACACACAATAATAATATAATA [CACACA_site4015]	9.39
AAGAGCAACCAAATAGAAAAAGGAAAATAAAAGGAA [CACACA_negctrl_site100]	9.51
TCCTATTTTATATAATGTACATAAATATATTACATA [XGTACX_site2720]	9.25
TATAACATAAAACACACACACATACATACACAAAAA [CACACA_site1804]	10.1
AAATTTTTTTTTTAATTTTTTATTTAAAAAAAATAT [TGCATGCA_negctrl_site174]	8.66
GTTATAAATAAATATACACACATATATAAAATACAT [CACACA_site7146]	9.75
CGCTTTATTTATATATGTACATATATATATATATAC [XGTACX_site5012]	9.33
AAGGCAAACAGACACACACACATATATACCTATATA [CACACA_site7077]	9.76
GTTATACACATTACATGTACAAAAGTTGCACTTCAT [XGTACX_site6023]	9.28
GTTGCCATCATTTGGCGTACAGTCAAAACCAAATCT [XGTACX_site1398]	8.93
TATAAGAAATAAAACCTGATTATAAACCTGTAACCA [CACACA_negctrl_site1302]	9.34
TAAATATAACAGAATAATATGTGGATTAATAAATGA [CACACA_negctrl_site438]	9.37
ATATAATATGTTGAATGTACTTAAAAAAATGTATCT [XGTACX_site5385]	9.21
AAAAAAAAAAAAAAAACACACATGTATACTAGAATA [CACACA_site7108]	9.46
TTAAGTTACAATTCTCGTACACATTAAAAGAAAATT [XGTACX_site699]	9.02
TTACAAATGTAGAAAAGTACATATAATAATAATTTA [XGTACX_site3044]	9.14
ATGGATAATAATAAGTGTACACATATATTTAGAAGA [XGTACX_site244]	9.4
AAAAAAAAAAAAAGCACACACACATATGCGTATATA [CACACA_site953]	9.86
TTTAAGCGTTCACTGCTGCACTTTTATGTTGTGACC	9.08
GGTAGAAAATCAGTTAAACACACACCGAAAAAAAAA [CACACA_site8934]	9.67
ATTTGTATAATAAGTTGTACAATTCTTACAATATAA [XGTACX_site4164]	8.99

Sequence	gcPBM binding intensity (ln)
GTCACATTGTTATATTGTACAAATGTCGTTCTTTTT [XGTACX_site8098]	9.56
CACTATCAATATATATGTACATATATATATATATAT [XGTACX_site7854]	9.28
TAAATATATAAATACACACAAACATACATATATATA [CACACA_site4050]	9.88
ATATAAAAATATATTAATATAAATAAATGGACATAT [XGTACX_negctrl_site488]	9.44
CTTATACATTATTAACGTACATGTTATATGAATAAC [XGTACX_site5752]	9.15
AACATTATAGGACACACACACACATATATATATATA [CACACA_site4721]	10.2
TTTTTTTTTTTTTTTTTTTTTTTTAAATGCTTCTAA [TGCATGCA_negctrl_site253]	8.46
TTTTAATTATATTATGCACACACAATTGGAAAAAAA [CACACA_site8598]	9.52
AACAAATAAGATAAATGACTTAACAAAAGAAAAAAG [CACACA_negctrl_site1409]	9.57
GTAAAAAATATGAATACACACATAAAGGAAATAACA [CACACA_site1997]	9.96
AAAAAAAAAAAATTCACACACATATAAAAAATTAAG [CACACA_site728]	9.7
AAAAAAAAAAAAAAAAGTACAGACGTCAAAAAAAAA [XGTACX_site4817]	9.34
TTTTTTTTTTTTTTTTTTTTTTTTGGGTCCCATACA [CACACA_negctrl_site913]	8.59
TAATATATAAGTATTTGTACATATTCATTCATCTAT [XGTACX_site2935]	9.13
AATGAGCGTTAAAAATGTACAGAAAATTGGAATTAT [XGTACX_site5743]	9.4
AAAACTTTTAGTTATACACACAACATAGAAAATATT [CACACA_site6287]	9.54
AACAATCAAATAGACACACACACACCCAAACATAAA [CACACA_site2757]	10.1
CTCCTACAAATATGTAGTACATTCAAAATAAATACC [XGTACX_site8207]	8.99
ATGCAATAAATATACACACACAAATCTATATTTATA [CACACA_site7179]	9.84
AAATAAAATAATTATAATACTAAAAATAATACATAA [GTGCAC_negctrl_site106]	9.42
AATTATTATATATATATATATATATATTTATATATT [GTGCAC_negctrl_site387]	9.11
AGTTCAAGGATTAAGACACACATATAAATAAATAAA [CACACA_site3662]	9.46

Sequence	gcPBM binding intensity (ln)
AAAAAATGGATGATCACACACTTCATAAAAGTTGCA [CACACA_site7109]	9.24
TTTTTTTTGTAGAATTGTACTTATAAAATATATATA [XGTACX_site2116]	8.84
CATTATGTTGTAAATACACACATACCTATACATACA [CACACA_site6485]	9.54
TATTTATTTATATTTACACACATTCATATAAATTCA [CACACA_site7628]	9.48
TTTTTTTTTTTATCTGCACACCCTTTTGTGAATATT [CACACA_site789]	9.36
TCTGAGAATGATAAAAAAAAAAAAAATGAAAAATTA [CACACA_negctrl_site1478]	8.93
ACGATATTTTTGGTGACACACATATATATATATATA [CACACA_site126]	9.53
TAATAAGTATAAAATAGTACATATAAATATATCAAA [XGTACX_site8834]	9.38
AGGAATAAATAATTAACACACACAATCTTTTTTTTT [CACACA_site9027]	9.76
ACTTTTTCACATAAAAATGATCCGATTAGTAATAAT [XGTACX_negctrl_site248]	9.16
AAATAAAAAAACTATTGTACTGAATACAAATTAAAT [XGTACX_site3793]	9.24
ATAATATTAGTAAACACACTCAAATTATATATGATA [CACACA_site5721]	9.3
AGTATACATTCATTTTGTACTCAATGATTTGATAAC [XGTACX_site6787]	9.09
ATAATTATATTCCATACACACATATATTTAAAGGTT [CACACA_site2957]	9.53
CATTTTTTAAGCATCACACACGAAAGAACAAAGTGG [CACACA_site4755]	9.47
TTTTTTTTTTTAAGGTGTACAATAAAAATTTATGCA [XGTACX_site8860]	8.87
TGGAAAATTATAAGGTGTACATATAAGCTATTATAT [XGTACX_site118]	9.38
CATATATAAAATATATGTACTTATAGAACATAATTT [XGTACX_site1936]	9.06
TTATAATAAATATGAAGTACTATAAATATGGTATAT [XGTACX_site5448]	9.34
CACTAAAATGGACACACACACACACCGATATATATA [CACACA_site6139]	10.2
AATAAATATAGGAATACACACAATATAAATGTATTG [CACACA_site3366]	9.67
ATCGCATAAAGACAAGAACACACATATATATTGTAG [CACACA_site9229]	9.41

Sequence	gcPBM binding intensity (ln)
TTTTTATTGAGAACAGTGCAAATAACAAAAAAAAAA	9.22
ATTTGGCATAAACACACACACACACCCACCCACATA [CACACA_site8096]	10.4
TAAATAAATACATACACACACATACATATATATATA [CACACA_site3129]	9.94
TTATTGTTTATTAAATGTACAGATTCGTTAAAATTA [XGTACX_site3041]	8.98
ACAACAATATGGAATTGTACATATATATATAAATAT [XGTACX_site3139]	9.32
CTAGCAAATACATACACACACACACCCATACATATA [CACACA_site3496]	10.3
TATTTTTTTGTGTTTGGTACACACGTTATAAAAAAT [XGTACX_site2655]	9.17
TACACAAAACATAAAAGTACATAATAATAAAGTTAA [XGTACX_site8872]	9.56
GAACAAATAAAAAGGAGTACAATCAAATCTACGTAT [XGTACX_site343]	9.59
AAATTATAATTAGGAACACACATATATATATATATA [CACACA_site3098]	9.4
TACATACATACATACATACACACATATATATATATA [CACACA_site1996]	9.45
TACATGTATAATATAATACACACTATATAATATACA [CACACA_site2239]	9.41
AAAAAGAAGATGCAAACATGCACACAGAAAAAAAAA [TGCATGCA_site375]	9.51
AAAAAAAAAAAAATTACACACATACAGATAATAATA [CACACA_site5244]	9.92
TTTTCATTCCACAACGCACACCCATTTAAAAAAAAA [CACACA_site1377]	9.26
CTATTATAAAAATGATGTACACTTATATATACATAT [XGTACX_site6087]	9.27
TTTTTTTTTTGAATATGTACTTAAAAAAATTTTTTT [XGTACX_site3851]	8.84
AATCAAATATTTAAATGTACTCAAGAAGGCTTAATC [XGTACX_site6907]	9.23
AAAAAATATTTTAGTGGTACATTTGTAGCTCTCAAA [XGTACX_site4859]	9.08
ATAACATGAACATATGTTACACAAACATACATACAT [XGTACX_negctrl_site365]	9.38
TATGAAGACACAAATACACACACTCAAAAAAAAAAA [CACACA_site2660]	9.67
AAAAATATAATATAATGTACACAAAAAAAAAAAATC [XGTACX_site1427]	9.71
